Laboratory results from the RNAGym collection of RNA variant scans (doi:10.7554/elife.90254).
The source gives no read counts; variants with many changes may rest on few reads.

B1: LINE1-full (parent)
chain: UACGUAGGUGGUUUUCCCCUGAUAGUGCUAAGGGGGCCUGGAAGUUUGGACUGGGCAGAGCUCAACACAGCGUGGCAAAGUGGCUGUGGCUAGACUGCCUCUCUGGAUUCCUCGUCACUCAGCAGGGCAUCUCUGAGAGAAAUGCC

Variants of: B1
Experiment: self-cleavage, relative activity (ratio to wild type); higher = more cleavage; in vitro, sequencing; the parent is a self-cleaving ribozyme
With U9A U26C U104A A142U the self-cleavage was 1.01.
Variant A64U A65U A129G has a self-cleavage of 0.04.
U14C G21A A50C gave a self-cleavage of 0.72.
Work on A78U C101A A138G yielded a self-cleavage of 1.97.
With A50G A77U A79U G83A U134C the self-cleavage was 0.37.
Work on U14C U81G U87A U96C yielded a self-cleavage of 0.05.
A77C U85C G106A showed a self-cleavage of 0.17.
Variant U12A A65G U104C U132C has a self-cleavage of 0.
In the case of C38U A57G U109A A140G, the self-cleavage is reported as 0.49.
Work on U1A C19U U104A A124U yielded a self-cleavage of 1.01.
Work on A42G A59G A142G yielded a self-cleavage of 0.11.
U9A A67C C123A showed a self-cleavage of 0.05.
In the case of A43G U47A A59G, the self-cleavage is reported as 0.03.
A50G U81A U102C U112C showed a self-cleavage of 2.66.
Work on U12G U39A U46C A77G yielded a self-cleavage of 1.37.
Work on A24G A77G A129U yielded a self-cleavage of 1.36.
In the case of A59U U109C A142G, the self-cleavage is reported as 1.15.
In the case of A22U G34A A69U A78U A117G, the self-cleavage is reported as 0.09.
U15C A31U G144U showed a self-cleavage of 0.58.
Variant U13C G54U A129G U130C U132C has a self-cleavage of 1.05.
Variant U39C A43U G137A has a self-cleavage of 1.6.
U14C A50C A64U A77G C95U A136U A138G gave a self-cleavage of 0.05.
In the case of A57U A59G A92G, the self-cleavage is reported as 0.16.
With U14G A67U U102A the self-cleavage was 0.05.
C18U A30G A50G A65G C95U U100C showed a self-cleavage of 0.
With A77G U108C U112C the self-cleavage was 0.
For C19G U20C A69U, the self-cleavage was 0.19.
With U13C A50G U100C the self-cleavage was 0.38.
U26A A59U G74A gave a self-cleavage of 0.37.
With C71A U87C A124G the self-cleavage was 0.01.
For A42G A59G U62C A64U U108C A136U U143A, the self-cleavage was 0.
Variant G4A A22G A69G has a self-cleavage of 0.63.
In the case of A78G G83A A140G, the self-cleavage is reported as 0.9.
In the case of A30G U47C A136U A142G, the self-cleavage is reported as 0.74.
A59G A117C A141G showed a self-cleavage of 0.07.
U13C U115A A124U gave a self-cleavage of 1.37.
For U45C U87A U112A A129G, the self-cleavage was 0.12.
In the case of U12C U20C G49A, the self-cleavage is reported as 1.04.
G48A G126A A141G showed a self-cleavage of 1.48.
For U62C A138C A141G, the self-cleavage was 0.
With G35A A65G A77U A121U the self-cleavage was 0.04.
Variant C38U G72A G114A has a self-cleavage of 1.5.
A30G U39C G41U U47A A67G showed a self-cleavage of 0.65.
Work on U12G A94G U104C A138G yielded a self-cleavage of 0.66.
U5C C63U A121U gave a self-cleavage of 0.17.
Variant U13C U87C U96A A136G has a self-cleavage of 0.3.
U29C A140G A141G gave a self-cleavage of 1.4.
A2G A22G A77G showed a self-cleavage of 0.
Variant A2G U46C A77U A129G has a self-cleavage of 0.
With G35A A64G A77U A117G A129G the self-cleavage was 0.16.
In the case of U29C A30U U134C, the self-cleavage is reported as 2.45.
U13C A69U G89A U119A showed a self-cleavage of 0.04.
G32C A92G U130C U143C showed a self-cleavage of 0.22.
U23A U47A C120U gave a self-cleavage of 0.66.
A31G G55C A107U U112C C128A gave a self-cleavage of 0.07.
For U5A U85A A129G, the self-cleavage was 0.
Work on U9C U13C A117U A141G yielded a self-cleavage of 0.
Work on A24G A50G A65G U132C yielded a self-cleavage of 0.
With U52A A57G A67G G83A U115C A142G the self-cleavage was 0.33.
Work on U29C G33C A107G A136U yielded a self-cleavage of 1.63.
In the case of U12G G80A G105U U119C U134C, the self-cleavage is reported as 2.77.
For U46A U81C U109A, the self-cleavage was 1.15.
Work on U81A U87A A94G U132C yielded a self-cleavage of 0.
U47C U62C G127A gave a self-cleavage of 0.09.
With U13A U26A A69G U115C the self-cleavage was 0.
Variant A136G A140G G144A has a self-cleavage of 1.48.
Work on U47G U62C A121G yielded a self-cleavage of 0.
Variant U20C U87A A136G has a self-cleavage of 0.08.
In the case of G58A U115C A117G, the self-cleavage is reported as 0.13.
Work on G8A A22G A107G A129G yielded a self-cleavage of 0.71.
U9C U15C A141G showed a self-cleavage of 1.87.
In the case of U13C A124G U132C, the self-cleavage is reported as 1.18.
With U13C U46A U81A the self-cleavage was 2.29.
Variant A42U A57G U73A U100C has a self-cleavage of 2.53.
With A22U A50G A59U A142G the self-cleavage was 0.45.
U15C A24G A64G U81C U85A showed a self-cleavage of 0.84.
Variant A50G A78G A124G has a self-cleavage of 0.59.
Work on A30G G41A A65G yielded a self-cleavage of 0.18.
Work on C19U A59U U91C yielded a self-cleavage of 0.28.
In the case of U9C A59G U96C A141G, the self-cleavage is reported as 0.
In the case of C18U C51A U96C, the self-cleavage is reported as 0.
Work on U13C A22G U104A U108C yielded a self-cleavage of 0.88.
For U14C A43G U100C, the self-cleavage was 1.53.
U12C U109A A129G showed a self-cleavage of 1.58.
